The record followed here is PubChem BioAssay AID488969 (Vanderbilt High Throughput Screening Facility, 2010).

Values joined by “and” are separate entries in the source; they are usually repeats but may differ in a detail not shown here. Identical values can stand only once. Over roughly 110,000 compounds, “z-score” has its median near -0.1; the highest 2% begin near 2. Some of the results follow. Active and inactive are the calls of the source.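 How the source made its calls: active means z-score in the third read window above 3 or below -3; inactive means the rest.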

This assay has as its target Metabotropic glutamate receptor 8 (Rattus norvegicus) (UniProt P70579). In words: rat mGluR8 modulators via GIRK flux, primary screen, cell-based, thallium flux, HTS (AID 488969). The conditions noted are these: HEK293 rat mGluR8, GIRK (G protein-gated inwardly rectifying potassium channel) thallium flux, FluoZin2; at 10 µM; stronger effect = higher value; submaximal glutamate (EC20) added with thallium.
UniProt P70579, sequence (P70579 whole entry, looked up): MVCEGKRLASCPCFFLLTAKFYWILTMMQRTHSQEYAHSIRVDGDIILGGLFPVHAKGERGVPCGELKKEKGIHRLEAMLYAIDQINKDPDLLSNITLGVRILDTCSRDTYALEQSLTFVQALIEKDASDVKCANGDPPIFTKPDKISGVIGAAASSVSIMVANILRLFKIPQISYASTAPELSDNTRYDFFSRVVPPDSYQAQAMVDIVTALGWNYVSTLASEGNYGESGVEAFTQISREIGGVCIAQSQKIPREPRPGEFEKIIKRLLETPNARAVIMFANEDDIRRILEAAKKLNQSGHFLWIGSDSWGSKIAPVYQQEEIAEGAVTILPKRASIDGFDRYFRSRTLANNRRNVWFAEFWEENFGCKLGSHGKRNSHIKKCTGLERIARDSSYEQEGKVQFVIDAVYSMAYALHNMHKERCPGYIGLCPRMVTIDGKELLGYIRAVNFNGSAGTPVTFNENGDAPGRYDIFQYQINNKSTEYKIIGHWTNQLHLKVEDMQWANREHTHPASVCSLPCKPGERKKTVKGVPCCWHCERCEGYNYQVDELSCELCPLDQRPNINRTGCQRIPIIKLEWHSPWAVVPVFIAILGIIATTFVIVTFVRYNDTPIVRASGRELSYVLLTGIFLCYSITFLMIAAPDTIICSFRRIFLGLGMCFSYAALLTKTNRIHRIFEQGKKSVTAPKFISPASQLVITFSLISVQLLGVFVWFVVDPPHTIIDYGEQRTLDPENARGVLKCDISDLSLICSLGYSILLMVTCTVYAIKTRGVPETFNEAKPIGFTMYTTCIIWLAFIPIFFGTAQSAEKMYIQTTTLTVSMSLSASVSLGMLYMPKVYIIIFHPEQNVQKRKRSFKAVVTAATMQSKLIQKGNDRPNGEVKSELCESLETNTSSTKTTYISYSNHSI
The compound `CC(=O)Nc1ccc(S(=O)(=O)N2CCCN(S(=O)(=O)c3ccc(NC(C)=O)cc3)CC2)cc1` returned a z-score of 0.937. For `CCCc1cc(C(=O)Nc2c(C)n(C)n(-c3ccccc3)c2=O)no1` the value was 0.151; for `O=[N+]([O-])c1ccc(Cl)c(C2Nc3cccc4cccc(c34)N2)c1`, -0.134.

`COc1ccc(-c2nc(C)sc2CC(=O)O)cc1` came in with a z-score of -0.33.

Regarding `Cn1c(=O)c2c(nc(NCc3ccccc3)n2CC(=O)NCc2ccccc2)n(C)c1=O`, the z-score is -0.514.

In turn, `CC(=O)Nc1ccc(NS(C)(=O)=O)cc1` came in with a z-score of -0.402. With `CCCCOc1ccc(CSc2n[nH]c(C)n2)cc1` the figure was 0.148. Consider `Cc1cccc(-c2nc(CS(=O)CC(=O)N3CCc4ccccc4C3)c(C)o2)c1` (stereo unspecified), for which the z-score was -0.163.

`O=C(N/N=C\c1cc(Br)cs1)C1COc2ccccc2O1` (stereo unspecified): the z-score worked out at 2.32. For `COc1ccc(CCCNC(=O)CC#N)cc1OC` the value was 0.881; for `CCCCN(C)C(=O)c1cc2cc3ccc(OC)cc3nc2s1`, -0.706. For `O=C(Cn1cncn1)NCc1ccccc1Br` the value was -0.0211; for `O=C(CSc1nc2ccccc2o1)Nc1ccc(N2CCOCC2)c(Cl)c1`, -0.431. For `O=C(Nc1ncc(Cc2ccccc2Cl)s1)C1=NCCN1` the value was 0.0654. For `Cc1ccccc1C(=O)NCCSc1ccccc1`, the z-score was -0.203. For `COc1ccc(NC(=O)C(c2ccccc2)N(C)C(=O)CNC(C)=O)cc1` (stereo unspecified) the value was 0.296; for `Cc1ccc(NC(=S)c2nc3ccccc3[nH]2)c(C)c1`, active: 6.64; for `Cc1[nH]c2ccc(CNS(=O)(=O)c3ccc(S(=O)(=O)N4CCOCC4)cc3)cc2c1C`, -0.355. In turn, `O=C1CCCN1CCCNc1ncnc2c1[nH]c1ccc(Cl)cc12` showed a z-score of 1.76. With `C/C(=N\Nc1nc(-c2ccc(C)cc2C)cs1)c1cc2ccccc2oc1=O` the figure was 0.187; with `Cc1ccoc1C(=O)Nc1ccc(CC(=O)O)cc1`, 0.152. For `CCSc1nnc(-c2cccnc2)n1-c1ccc(C)c(Cl)c1` the value was -0.232.

As for `COC(=O)CSc1nnc(-c2ccc(S(=O)(=O)NCc3cccs3)cc2)o1`, the z-score was -1.93. For `Cc1ccc(C)c(N(CC(=O)NN=C2CCN(C)CC2)S(=O)(=O)c2ccccc2)c1` the value was -0.242; for `CCC(C)c1ccc(NC(=S)Nc2ccc(OC)c(OC)c2)cc1` (stereo unspecified), active: 5.09. `COc1cccc(/C=N/NC(=O)c2ccccc2)c1OS(=O)(=O)c1ccccc1` registered a z-score of -0.323. For `COc1ccc(N2CCN(Cc3nnc(-c4ccccc4)o3)CC2)cc1`, the z-score was -0.12.

With `Cc1ccccc1Cn1nc(C)c(NC(=O)c2cc(-c3cccs3)on2)c1C`, the z-score is -0.614. With `CC(C)Oc1ccc(Br)cc1/C=N\NC(N)=S` the figure was 0.548; with `CC(C)CC(=O)NC(=S)Nc1nc(-c2ccc(Cl)cc2)cs1`, 0.0823.

On to `CCn1c(COc2ccc(C)cc2)nnc1SCc1ccc(C#N)cc1`, for which the z-score is -0.0466.

Turning to `COc1ccc(-c2ccnc(SCC(=O)N3CCOCC3)n2)cc1`, the z-score came out at 0.325.

With `Cc1cc2cc(CNC(=O)NC3CCCCC3)ccc2n1C`, the z-score was 0.959.

`CC1CCN(c2nc3c(c(=O)n(C)c(=O)n3C)n2CCSc2nc3ccccc3s2)CC1` yielded a z-score of -0.725. For `COC(=O)c1cccc(COC(=O)c2ccccc2NC(=O)c2ccco2)c1` the value was 0.262; for `CCOc1cc(C(=O)N2CCN=C2SC)cc(OCC)c1OCC`, 0.00226; for `Cc1ccc(C(=O)N/C(=C\c2ccc(-c3ccc(Br)cc3)o2)C(=O)NC2CCS(=O)(=O)C2)cc1` (stereo unspecified), -0.13.

In the case of `O=C(Oc1cccc2c(O)cccc12)c1ccccc1`, the z-score is -0.446. The compound `O=S(=O)(c1ccc2ccccc2c1)N1CCCCC1` registered a z-score of 0.0683. With `CCCN(CCC)S(=O)(=O)c1ccc(C(=O)Nc2nc3c(s2)CCc2ccccc2-3)cc1` the figure was -0.276; with `CCCCc1nc(S(=O)(=O)c2ccc(Cl)cc2)c(N2CCOCC2)o1`, -0.44; with `COc1cccc(-c2nnc(-c3ccc(C(F)(F)F)cc3)o2)c1`, -0.245. For `CN(C1CCCCC1)S(=O)(=O)c1ccc2c(c1)c(=O)c(C(=O)NCCN1CCCC1)cn2C` the value was 0.253.

Compound `COc1ccccc1-n1cnc2cc(NS(=O)(=O)c3ccc(Br)cc3)ccc21` gave a z-score of -0.513. With `O=C(CCc1nc2ccccc2c(=O)[nH]1)OCc1ccccc1F` the figure was -0.226; with `Cc1ccc2cc3c(N)[nH]nc3nc2c1`, -0.203. Consider `COC(=O)c1sccc1-n1cccc1C(=O)NCc1ccccc1`, for which the z-score was -0.494. `Cc1ccc(NC(=O)COC(=O)c2ccccc2-c2nc3ccccc3s2)c(C)c1` yielded a z-score of -0.289. In turn, `COC(=O)c1nnn(Cc2ccccc2)c1N` had a z-score of 0.645. With `CSc1ncc(Cl)c(C(=O)Nc2sc3c(c2C(=O)NCc2ccco2)CCCC3)n1` the figure was -1.07.

`O=C(CO/N=C/c1ccccc1)N1c2ccccc2Oc2ccccc21` showed a z-score of -0.069. For `O=C(COC(=O)COc1ccccc1)Nc1ccc(OC(F)(F)F)cc1` the value was -1.71. Turning to `c1ccc(OCCCc2nc(-c3cccnc3)no2)cc1`, the z-score was found to be 0.16.

The compound `CCC(=O)N(C)C(c1ccccc1Cl)c1nnnn1-c1c(C)cccc1C` (stereo unspecified) yielded a z-score of -0.215. For `CC(NC(=O)COC(=O)c1ccc([N+](=O)[O-])s1)c1ccccc1` (stereo unspecified) the value was 0.0733; for `COc1ccc(/C=N/NC(=O)c2cc(C34CC5CC(CC(C5)C3)C4)[nH]n2)cc1OC`, -0.412; for `CN1/C(=C\C(=S)NC(=O)c2ccccc2Cl)C(C)(C)c2ccccc21`, 0.0507. The compound `Cc1nc(SCc2ccc([N+](=O)[O-])cc2)nc2ccccc12` registered a z-score of -0.151.

Compound `Cn1nc(-c2ccccc2)c(C(O)c2ccc(Cl)cc2)c1Cl` (stereo unspecified) yielded a z-score of -0.238. `COC(=O)C1=C(C)N=C2SC(C)C(=O)N2C1/C=C/c1ccccc1OC` (stereo unspecified) had a z-score of -0.131.

The compound `O=C(C1CCCO1)N1CCN(Cc2nc3ccccc3c(=O)[nH]2)CC1` (stereo unspecified) registered a z-score of 0.339. The compound `O=C(CS(=O)(=O)c1c[nH]c2ccccc12)NC1CCCCC1` displayed a z-score of 0.311. Regarding `COc1cccc(C2(c3cccc(OC)c3)CC2C(=O)Nc2cccc3ccccc23)c1` (stereo unspecified), the z-score is -0.0171. Compound `CC(C)(O)C#CC#CCN1CCOCC1` gave a z-score of 0.277. `CC(C)C(NC(=O)C12CC3CC(CC(C3)C1)C2)C(=O)N/N=C/C1=C(N2CCOCC2)C(=C\c2ccc([N+](=O)[O-])cc2)/CC1` (stereo unspecified) gave a z-score of -0.21. With `CCCC(O)(CCN1CCOCC1)c1ccc(Br)cc1` (stereo unspecified) the figure was -0.00424; with `COc1ccc(OC)c(-c2nnc(SCC(=O)N3CCOCC3)o2)c1`, -0.89; with `COc1ccccc1-n1nnnc1SCC(=O)Nc1cc(C)on1`, -0.38. `CCCCCCCc1nc2c(=O)[nH]c3ccccc3c2o1` returned a z-score of 0.184.

With `Cc1cc(NC(=O)c2ccco2)ccc1-n1cnnn1`, the z-score came to 0.0211. For `CCCc1cc(=O)[nH]c(SCc2nc3ccccc3s2)n1` the value was -0.78; for `COC(=O)[C@@H](NC(=O)Nc1cc(Cl)ccc1C)C(C)C`, 0.422; for `Cc1ccc2c(c1)c1c3n2CCCN(Cc2ccccc2)C3CCC1` (stereo unspecified), -0.366. For the compound `Cc1ccc(-n2ccc(=O)c(C(=O)O)n2)cc1`, the z-score is -0.105. For `CC(Sc1nc2ccccc2[nH]1)C(=O)Nc1ccc2c(c1)OCCO2` (stereo unspecified) the value was -0.436.

As to `COc1cc2c(cc1OC)C(COc1ccc3c(C)cc(=O)oc3c1)N(C(=O)c1ccco1)CC2` (stereo unspecified), the z-score amounted to 0.044.

`CNCC(O)COc1ccccc1` (stereo unspecified): the z-score is 0.394.

Take `O=C(Nc1ccccc1Cl)N1CCN(c2ccccn2)CC1`: the z-score was -0.555. In turn, `C=CCOc1c2ccc(C(=O)NCc3ccc(OC)cc3)cc2nn1C` yielded a z-score of -0.117. For `CCOc1cc(/C=N/NC(=O)Cc2ccc(C(F)(F)F)cc2[N+](=O)[O-])ccc1O` the value was -0.332. Turning to `Cc1ccc(NC(=S)NCCc2ccccc2)c(C)c1`, the z-score was found to be 0.0618. With `Cc1ccc(Sc2ncnc(N)c2[N+](=O)[O-])cc1` the figure was 0.206. With `COc1ccc(CCNC(=O)N2CCOCC2)cc1` the figure was -0.0601; with `COc1ccc(N2CCC(CNC(=S)Nc3cccc(C)c3)C2)cc1` (stereo unspecified), -0.0754. For `Cc1cc(OCC(=O)Nc2cc(-c3nn4c(C)nnc4s3)ccc2C)ccc1Cl` the value was -0.447. The compound `Cc1ccc(-c2nnc(NCc3nc4ccccc4[nH]3)c3ccccc23)cc1S(=O)(=O)N1CCOCC1` registered a z-score of -0.308. For `CCOC(=O)Cc1c[nH]c2ccccc12` the value was 0.418; for `CCSCCOC(=O)C1=C(C)NC(=O)NC1c1ccccc1` (stereo unspecified), -0.376.

`COc1cc(/C=C(\C#N)C(=O)Nc2cccc3ncccc23)cc(OC)c1OC` returned a z-score of -0.528. For `COc1cc(C2C(C(=O)OC(C)C)=C(C)Nc3ncnn32)cc(OC)c1OC` (stereo unspecified) the value was 0.269; for `O=C(O)c1cn(-c2ccccc2)nc1-c1ccncc1`, -0.201. On to `CC(=O)/C(=N\Nc1ccccc1Cl)Sc1nnc(-c2ccccc2)n1-c1ccccc1`, for which the z-score is -0.107. With `CCCNC(=O)c1ccc2nc(-c3ccccc3)c(-c3ccccc3)nc2c1` the figure was -0.882; with `CC(C)[C@H](NC(=O)[C@@H]1CSCN1C(=O)OC(C)(C)C)C(=O)NCC1CCC(C(=O)O)CC1` (stereo partly specified), 0.225. For `O=C(c1ccccc1S(=O)(=O)NCc1ccccc1)N1CCCCC1` the value was -0.382; for `O=C(Nc1nc(=O)c2ccccc2s1)c1ccc(Cl)cc1`, active: 14.9; for `CO/N=C/CC(=O)Nc1ccc(F)cc1F`, 0.22. For `Cc1ccc(C(=O)Nc2cccc(C(=O)O)c2)cc1S(=O)(=O)N1CCOCC1` the value was -0.0683. Compound `COc1ccc2[nH]c3c(=O)n(CCCCC(=O)N4CCC(C(N)=O)CC4)c(=S)[nH]c3c2c1` displayed a z-score of -0.391. For `N=C(N)SCc1nc2ccccc2c(=O)n1-c1ccccc1` the value was -0.0818 and -0.341.

In turn, `CCN1CCN(C(c2nnnn2Cc2ccc3c(c2)OCO3)C(C)C)CC1` (stereo unspecified) had a z-score of 0.249.

`CCOC(=O)c1cnc2ccc(OC)cc2c1Nc1ccc2c(c1)OCCO2`: the z-score was -0.741. For `O=C(N/N=C/c1cccs1)c1n[nH]c2c1CCC2` the value was -0.236. For `O=C1NC(=S)SC1=C1CCCC1`, the z-score came to 1.36. For `C=CCOC(=O)C1=C(C)NC(C)=C(C(=O)OCC=C)C1c1cccs1` the value was -0.714; for `Cn1cc(/C=N/NC(=O)c2cccc([N+](=O)[O-])c2)c2ccccc21`, -0.0885; for `O=S(=O)(Nc1ccc(-c2nc3cccnc3s2)cc1)c1cccs1`, -0.299.

In turn, `O=c1oc2cc(OCc3ccc(C(F)(F)F)cc3)ccc2cc1-c1ccccn1` gave a z-score of 0.417. For `CCOC(=O)c1c(-c2cccs2)csc1NC(=O)CNCCN1CCOCC1` the value was -0.205; for `O=c1oc2cc(O)ccc2cc1-c1ccc(F)cc1`, -0.21. With `COc1ccc(S(=O)(=O)N2CCCCCC2)cc1NC(=O)c1c2c(nc3ccccc13)CCN(Cc1ccccc1)C2` the figure was -0.0637.
